The whole screen tested about 400,000 compounds, of which about 2,200 (0.55%) were called active. Inconclusive means that the source gave no clear call. Such entries were picked first, then a sample of the others. The call rests on the fitted dose curve; in most records, active means well fitted inhibition curve with a large enough effect; inconclusive means small, poorly fitted or top-dose-only effect, or another doubt; inactive means no such curve, though single readings can be large or run the other way. Potencies beside an inconclusive call are fits to weak or partial responses and may not hold up. Starred links: 1 amine or outer side, 2 acyl side, 3 side chain; linkers in the order of their positions; H or OH if unused. Positions of bridges follow the written chain, without caps; N, C: chain ends. Non-standard residues stand in square brackets, D forms with d. Residues, ends and D or L forms follow the SMILES beside them. ξ: configuration not given here. hSer(Ph(2-I,4-NO2,6-CO)) = O=C([C@H](CCOc1c(I)cc([N+](=O)[O-])cc1C(=O)[*:3])N[*:1])[*:2]; ξD = NC(CC(=O)O)C(=O)O
Molecular target: DNA polymerase kappa (Homo sapiens) (UniProt Q9UBT6)
UniProt Q9UBT6, sequence (Q9UBT6 whole entry, looked up): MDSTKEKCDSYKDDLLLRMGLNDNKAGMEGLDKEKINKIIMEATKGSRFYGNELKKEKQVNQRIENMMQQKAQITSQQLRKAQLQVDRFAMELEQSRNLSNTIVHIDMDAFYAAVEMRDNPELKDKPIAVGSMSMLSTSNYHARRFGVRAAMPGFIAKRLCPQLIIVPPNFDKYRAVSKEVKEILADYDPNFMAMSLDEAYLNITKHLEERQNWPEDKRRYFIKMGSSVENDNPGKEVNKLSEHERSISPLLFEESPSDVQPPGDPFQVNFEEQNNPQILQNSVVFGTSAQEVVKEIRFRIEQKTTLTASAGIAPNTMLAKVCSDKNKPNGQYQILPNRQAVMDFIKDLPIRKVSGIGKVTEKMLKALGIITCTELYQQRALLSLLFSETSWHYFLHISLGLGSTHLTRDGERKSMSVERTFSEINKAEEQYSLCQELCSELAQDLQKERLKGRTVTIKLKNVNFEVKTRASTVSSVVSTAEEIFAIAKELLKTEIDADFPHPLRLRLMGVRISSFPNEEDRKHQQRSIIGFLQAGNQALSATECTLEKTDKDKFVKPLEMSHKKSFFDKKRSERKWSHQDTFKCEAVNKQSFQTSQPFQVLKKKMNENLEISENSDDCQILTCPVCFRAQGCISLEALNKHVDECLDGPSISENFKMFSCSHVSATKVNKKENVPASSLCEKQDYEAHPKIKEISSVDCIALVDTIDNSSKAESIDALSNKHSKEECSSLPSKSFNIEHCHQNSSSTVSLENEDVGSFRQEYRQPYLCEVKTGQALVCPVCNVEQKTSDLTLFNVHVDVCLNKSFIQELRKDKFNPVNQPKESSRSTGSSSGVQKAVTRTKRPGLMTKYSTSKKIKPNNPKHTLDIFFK
Test: qHTS for Inhibitors of Polymerase Kappa
Conditions: purified Pol kappa, fluorescent DNA synthesis assay, 10 min; series mostly up to 107 µM; activity, negative = inhibition: at the top concentration
In short: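 Kinetic fluorescence screen: compound preincubated 15 min RT with 10 nM enzyme; 50 nM substrate (final) initiates; reads at 0/10 min.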
On the % scale 0 is the no-effect control and ±100 the full control effect; potency means the concentration at half of the fitted maximal effect; tags describe the fitted curve by direction and shape.

Row | SMILES | activity, negative = inhibition | Potency
1 | CC(C)=CCC[C@]1(C)[C@@H](CC=C(C)C)C[C@@]2(CC=C(C)C)C(=O)[C@]1(C(=O)C(C)C)C(=O)C(CC=C(C)C)=C2O | inactive: -7.28% [at 19.4 µM] | –
2 | COc1cccc(N2CC(C(=O)Nc3nnc(SCc4cccnc4)s3)CC2=O)c1 (stereo unspecified) | inactive: -7.94% | –
3 | Cn1c2ccccc2c2cc(/C=N/NC(=O)c3cc(O)cc(O)c3)ccc21 | – | inconclusive: 56.2 µM [inhibitor, partial curve, poor fit]
4 | CCN(CC)c1ccc(/C=N/N2C(=O)c3ccccc3C2=O)c(O)c1 | – | inconclusive: 100 µM [inhibitor, single point]
5 | O=C(N/N=C/c1cc(Cl)c(O)c(Cl)c1)c1cc2c(ccc3ccccc32)o1 | – | inconclusive: 100 µM [inhibitor, partial curve, poor fit]
6 | Brc1ccc(-c2nn3c(-c4ccccn4)nnc3s2)o1 | – | inconclusive: 100 µM [inhibitor, single point]
7 | Cc1cc(C)nc(SCC(=O)c2ccc(O)c(O)c2)n1 | – | inconclusive: 79.4 µM [inhibitor, partial curve, poor fit]
8 | COc1cc(C2c3c([nH]c(=O)[nH]c3=O)Nc3ccc4ccccc4c32)cc(OC)c1OC (stereo unspecified) | – | active: 25.1 µM
9 | CC(CCc1ccco1)NC(=O)CCc1nnc2ccc(NCc3ccc(Cl)cc3)nn12 (stereo unspecified) | – | active: 79.4 µM
10 | Cc1nn2c(=O)cc(COc3ccc(/C=C(\C#N)C(=O)Nc4ccccc4C)cc3)nc2s1 | – | inconclusive: 89.1 µM [inhibitor, single point]
11 | COc1cccc(NS(=O)(=O)c2ccc3[nH]cc(C(=O)NC(C)c4ccccc4)c(=O)c3c2)c1 (stereo unspecified) | – | inconclusive: 89.1 µM [inhibitor, partial curve, poor fit]
12 | O=C1c2cccnc2C(=O)N1Cc1ccc(Cl)cc1 | – | inconclusive: 89.1 µM [inhibitor, single point]
13 | N=C1/C(=C\c2ccc(SCc3ccccc3)o2)C(=O)N=C2SC=NN12 | inactive: -20.3% | –
14 | CN(C)/C=C/C(=O)c1ccc(Cl)c([N+](=O)[O-])c1 | inactive: -2.93% | –
15 | N[C@]1(C(=O)O)CCc2cc(C(=O)O)ccc21 | – | inconclusive: 11.2 µM [inhibitor, partial curve]
16 | NC(C(=O)O)C(O)c1ccc(O)c(O)c1 (stereo unspecified) | – | active: 0.238 µM
17 | Cc1ccccc1N=Cc1cccc(O)c1O | – | active: 10 µM
18 | Cc1c(Br)c(O)c(Br)c2sc(=O)oc12 | – | inconclusive: 89.1 µM [inhibitor, single point]
19 | Oc1cccc(/C=N/NC(=S)Nc2cccnc2)c1O | – | inconclusive: 50.1 µM [inhibitor, partial curve, poor fit]
20 | Cc1ccc(CSC2=NC(C)(C)Nc3ccccc32)c(C)c1 | inactive: -17.5% | –
21 | Cc1ccccc1S(=O)Cc1ccc(C(=O)NCc2ccccc2Cl)o1 (stereo unspecified) | inactive: -3.56% | –
22 | CO/N=C(/C(=O)N[C@@H]1C(=O)N2C(C(=O)O)=C(C[n+]3ccc(N)n3CCO)CS[C@H]12)c1csc(N)n1 | inactive: 4.25% [at 19.4 µM] | –

Row | SMILES | activity, negative = inhibition | Potency
23 | O=C1Nc2ccc(I)cc2C1=Cc1cc(Br)c(O)c(Br)c1 | – | inconclusive: 89.1 µM [inhibitor, single point]
24 | CCN1/C(=C/C=C/c2oc3ccc(-c4ccccc4)cc3[n+]2CC)Oc2ccc(-c3ccccc3)cc21 | – | inconclusive: 50.1 µM [inhibitor, partial curve]
25 | O=C(O)Cc1ccc(-n2cccc2)cc1 | – | active: 44.7 µM
26 | COc1ccccc1C(=O)N/C(=C/c1ccco1)C(=O)Nc1cccc(C(=O)O)c1 | – | active: 44.7 µM
27 | COc1cccc(C(=O)Nc2cccc(C(=O)NC3=NN(c4c(Cl)cc(Cl)cc4Cl)C(=O)C3)c2)c1 | – | active: 22.4 µM
28 | O=C(O)c1cn[nH]c1-c1cccc([N+](=O)[O-])c1 | – | inconclusive: 89.1 µM [inhibitor, single point]
29 | CC[n+]1ccc(/C=C2\Sc3ccccc3N2CCCS(=O)(=O)[O-])c2ccccc21 | – | inconclusive: 35.5 µM [inhibitor, single point]
30 | Cc1ccc(NC(=O)CN2C(=O)N/C(=C/c3ccco3)C2=O)cc1 | – | inconclusive: 56.2 µM [inhibitor, partial curve, poor fit]
31 | COc1ccc(-c2nn(-c3ccccc3)cc2/C=C2/SC(=S)N(CCC(=O)O)C2=O)c(C)c1 | – | inconclusive: 100 µM [inhibitor, single point]
32 | CC[n+]1c(C)n(-c2ccccc2)c2ccc(NC(C)=O)cc21 | – | inconclusive: 79.4 µM [inhibitor, partial curve]
33 | COc1ccc(-c2cn3c(n2)sc2cc(C(=O)NCCc4ccccc4)ccc23)cc1 | inactive: -21.1% | –
34 | CCOc1ccc2c(ccc(/C=C/c3cc(C)c4cccnc4c3O)[n+]2C)c1 | – | inconclusive: 28.2 µM [inhibitor, full curve]
35 | CC(C)Cn1c(O)c(N=NC(=O)c2cccc(S(=O)(=O)N3CCCCC3)c2)c2ccccc21 | – | inconclusive: 89.1 µM [inhibitor, single point]
36 | CC1Cc2ccccc2N1C(=O)COC(=O)c1ccc(N(C)C)cc1 (stereo unspecified) | – | active: 50.1 µM
37 | O=CNn1cnc2c(oc3nc(-c4ccccc4)cc(-c4ccco4)c32)c1=O | – | inconclusive: 89.1 µM [inhibitor, single point]
38 | O=C(O)C1OC(Oc2c(-c3ccc(O)c(O)c3)oc3cc(O)cc(O)c3c2=O)C(O)C(O)C1O (stereo unspecified) | – | active: 14.1 µM
39 | COc1ccc(-c2c3c([nH]c(=S)c2C#N)CCC3)cc1 | – | inconclusive: 89.1 µM [inhibitor, partial curve, poor fit]
40 | CC1(OC(=O)CCc2ccccc2)C(=O)C=C2C=C3CCCN3C=C2C1=O (stereo unspecified) | – | inconclusive: 44.7 µM [inhibitor, partial curve, poor fit]
41 | CCC(C)NC(=O)c1cc2cc3ccc(OC)cc3nc2s1 (stereo unspecified) | – | inconclusive: 89.1 µM [inhibitor, single point]
42 | Cc1cc(/C=C/c2ccc3cc(N(C)C)ccc3[n+]2C)c(C)n1-c1ccccc1 | – | active: 28.2 µM
43 | Cn1nnc(NC(=S)NC(=O)/C=C/c2ccco2)n1 | – | inconclusive: 56.2 µM [inhibitor, partial curve, poor fit]
44 | COc1ccc(/C=C2\SC(=O)NC2=S)cc1OC | – | inconclusive: 25.1 µM [inhibitor, partial curve, poor fit]

Row | SMILES | activity, negative = inhibition | Potency
45 | CC(=O)Nc1ccc(NC(=O)CSc2nnc(-c3cccnc3)o2)cc1 | inactive: -8.83% | –
46 | O=C(O)c1ccc(NN=CC2=C(N3CCOCC3)/C(=C/c3ccccc3)CC2)cc1 | – | active: 28.2 µM
47 | C#CCOCCOCCOCCNc1nc(N2CCN(C(=O)C(Cc3cc4ccccc4[nH]3)n3cc(C(N)Cc4ccc(O)cc4)nn3)CC2)nc(N2CCN(C(=O)C(Cc3cc4ccccc4[nH]3)n3cc(C(N)Cc4ccc(O)cc4)nn3)CC2)n1 (stereo unspecified) | inactive: -7.04% | –
48 | CC(C)CCNC(=O)c1ccc2nc(Cc3ccccc3)oc2c1 | inactive: -3.66% [at 60.1 µM] | –
49 | Cc1ccc(S(=O)(=O)c2nc(-c3cccs3)oc2N2CCC(C)CC2)cc1 | – | inconclusive: 79.4 µM [inhibitor, partial curve, poor fit]
50 | C[C@@H]1NC(=O)c2cc([N+](=O)[O-])cc(I)c2OCC[C@@H](C(=O)NC(CC(=O)O)C(N)=O)NC(=O)[C@H](CCC(=O)O)NC1=O (stereo partly specified) (AE[hSer(Ph(2-I,4-NO2,6-CO))][ξD]-NH2; lactam N-3) | – | inconclusive: 56.2 µM [inhibitor, partial curve, poor fit]
51 | CCCCn1c(N)c(N(CCOC)C(=O)c2cc(-c3ccco3)nc3ccccc23)c(=O)[nH]c1=O | – | active: 89.1 µM
52 | O=c1c2oc3ccccc3c2n(Cc2ccccc2Cl)c(=O)n1Cc1ccc2c(c1)OCO2 | inactive: -16.8% | –
53 | Cc1cccc(N/C(N)=N/c2nc(CSc3ccc(Cl)cc3)cc(=O)[nH]2)c1 | – | inconclusive: 89.1 µM [inhibitor, single point]
54 | O=C(COc1ccc(Cl)cc1)OCc1cc(=O)n2nc(C3CCCCC3)sc2n1 | inactive: -25.9% | –
55 | COc1ccc(C(C(=O)NC2CCCC2)N(C(=O)c2snc(C(N)=O)c2N)c2cccc(O)c2)cc1 (stereo unspecified) | – | active: 79.4 µM
56 | COc1ccc(Cc2nc3ccccc3n2CC(=O)N/N=C/c2ccc(C)cc2O)cc1OC | – | inconclusive: 44.7 µM [inhibitor, partial curve]
57 | Cc1cc(C)c2nc(N3CCCN(C(=O)c4ccco4)CC3)c(C#N)cc2c1 | inactive: -20.2% | –
58 | COC(=O)C1=CO[C@@H](C)[C@@H]2CN3CCc4c([nH]c5ccccc45)[C@@H]3C[C@H]12 | – | inconclusive: 16.8 µM [inhibitor, partial curve, poor fit]
59 | COc1cc2c(C(=O)N3CCN(c4ccccc4C)CC3)c(C)oc2cc1Br | – | inconclusive: 79.4 µM [inhibitor, single point]
60 | O=C(COc1ccccc1Cl)c1ccc[nH]1 | inactive: -21.1% | –
61 | O=C(O)c1ccc2nc(-c3ccco3)c(-c3ccco3)nc2c1 | – | active: 22.4 µM
62 | N#CCC(=O)Nc1ccc(C(=O)OCC(=O)N2CCN(C(=O)c3ccco3)CC2)cc1 | – | active: 44.7 µM
63 | Cc1ccc(C)c(Nc2nnc(-c3ccc(C)c(S(=O)(=O)N4CCCCC4)c3)c3ccccc23)c1 | – | active: 79.4 µM
64 | O=C(Nc1nc2ccccc2s1)C1CCN(S(=O)(=O)c2cc([N+](=O)[O-])ccc2Cl)CC1 | – | inconclusive: 70.8 µM [inhibitor, partial curve, poor fit]
65 | N#C/C(=C\c1ccc(-c2ccc(C(=O)O)cc2)o1)c1nc2ccccc2[nH]1 | – | inconclusive: 39.8 µM [inhibitor, single point]
66 | C=C(C)C(=O)N1CC2(CC(c3cccc(NC(=O)/C=C\C=C/C)c3)=NO2)C[C@H]1C(N)=O (stereo partly specified) | – | active: 39.8 µM

— PubChem BioAssay AID588579 (National Center for Advancing Translational Sciences (NCATS), 2011)
